# Test results published in the supplement of paper PMC8728848.
# This is one part of the list.
# B1: Epa23 (Candida glabrata) (protein)
# chain: MGSSHHHHHHSSGLVPRGSHMIPNPFEGTINNFPSGCSPNHGLYNRGLTMELYNYSYIHPQSIQSYFNTSTLKKMEKGQCWDPSYLDVNYPRTGYKTHNRFAKVNGIDGILDFEFNPTRSCVPSKGQLPQNYNYPLQFTLSNFTMLLYGYFKPKVTAKHTFTIFADDLLFLNFGAGNAFDCCQQQDTIDDFGNYQAYALWGSDTQQNTLTVNLDANIYYPIRMFYNNRDFKGALNMYFTTDESNTKINDFSGYLFNIPDSSEGCPAHISYETECGNVSG
# Legend:
# Assay in all cases: glycan array binding signal (z-score within array); higher = stronger binding
# Conditions in all cases: glycan notation: IUPAC condensed, linker removed
# [1] = target: Neu5Gc(a2-8)Neu5Gc(a2-3)Gal(b1-4)GlcNAc(b1-3)Gal(b1-4)GlcNAc
# Method in brief: (§1)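 Columns mapping to the same glycan were averaged after glycan names were converted to IUPAC-condensed notation. The data come from 3228 arrays in the Consortium for Functional Glycomics database, limited to those with an available protein sequence. Binding is reported as a within-array Z-score averaged across arrays of one protein sequence and across linkers.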
# [2] = target: Neu5Gc(a2-8)Neu5Gc(a2-6)Gal(b1-4)GlcNAc
# Method in brief: as §1
# [3] = target: Neu5Gc(b2-6)Gal(b1-4)GlcNAc
# Method in brief: as §1
binder,measurement,setting,value
B1,glycan array binding signal (z-score),[1],-0.251
same,glycan array binding signal (z-score),[2],-0.235
same,glycan array binding signal (z-score),[3],-0.194
